Consider 88 compounds from PMC4336329 (PLoS ONE, 2015).

Hit rate of the full screen: of about 310,000 compounds, about 2,200 (0.71%) showed an effect of 50% or more. Effects have a minus sign here. This is one part of the list.

Sequence of human ether-à-go-go-related gene (hERG) potassium channel (Q12809 whole entry, looked up): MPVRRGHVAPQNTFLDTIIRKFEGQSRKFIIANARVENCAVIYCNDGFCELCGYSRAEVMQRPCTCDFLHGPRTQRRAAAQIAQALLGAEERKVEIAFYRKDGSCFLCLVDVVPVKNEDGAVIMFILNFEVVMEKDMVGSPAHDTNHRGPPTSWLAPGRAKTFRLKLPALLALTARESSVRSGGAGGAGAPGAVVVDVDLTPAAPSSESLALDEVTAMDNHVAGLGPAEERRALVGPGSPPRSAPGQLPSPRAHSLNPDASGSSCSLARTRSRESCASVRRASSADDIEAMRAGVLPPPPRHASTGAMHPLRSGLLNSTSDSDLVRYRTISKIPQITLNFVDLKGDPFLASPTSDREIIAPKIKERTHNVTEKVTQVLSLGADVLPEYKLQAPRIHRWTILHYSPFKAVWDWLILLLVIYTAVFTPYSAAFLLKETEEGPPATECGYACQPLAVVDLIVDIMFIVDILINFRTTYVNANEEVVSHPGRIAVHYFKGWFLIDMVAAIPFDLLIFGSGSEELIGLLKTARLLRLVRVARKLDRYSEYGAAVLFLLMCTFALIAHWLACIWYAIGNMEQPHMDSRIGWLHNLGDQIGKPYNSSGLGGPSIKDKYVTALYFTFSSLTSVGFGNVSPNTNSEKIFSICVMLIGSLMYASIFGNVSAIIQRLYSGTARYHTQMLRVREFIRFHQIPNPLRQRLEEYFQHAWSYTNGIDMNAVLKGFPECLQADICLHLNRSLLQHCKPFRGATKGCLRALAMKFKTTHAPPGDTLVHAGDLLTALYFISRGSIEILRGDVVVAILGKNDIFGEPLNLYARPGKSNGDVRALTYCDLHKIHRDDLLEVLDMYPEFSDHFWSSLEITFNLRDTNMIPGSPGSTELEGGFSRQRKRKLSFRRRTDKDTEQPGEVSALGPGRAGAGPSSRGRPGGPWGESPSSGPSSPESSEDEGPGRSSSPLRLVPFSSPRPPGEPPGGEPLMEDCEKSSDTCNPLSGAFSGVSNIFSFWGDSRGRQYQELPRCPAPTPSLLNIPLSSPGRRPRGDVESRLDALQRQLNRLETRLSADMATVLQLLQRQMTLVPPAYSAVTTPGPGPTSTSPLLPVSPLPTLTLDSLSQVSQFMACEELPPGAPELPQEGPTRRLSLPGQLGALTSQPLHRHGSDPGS

This assay addresses human ether-à-go-go-related gene (hERG) potassium channel (human, UniProt Q12809). The assay is described as follows: primary screen, population patch clamp on CHO cells stably expressing hERG.
As to `CCC(=O)c1cn(CC(=O)O)c2ccccc12`, the “hERG current change (%, negative = inhibition) at 1uM” value is 9.33%. Then `CCOC(=O)c1ccccc1NC(=O)C1=COCCO1`, with 14.1%; and `Cc1ccccc1Cn1cnc2c(oc3ccccc32)c1=O`, with 11.4%. On to `COc1ccc(N2C(=O)CS(=O)C(c3ccccc3)C2=O)cc1` (stereo not shown), for which the “hERG current change (%, negative = inhibition) at 1uM” value is reported as -24.3%. Then `CCOC(=O)/C(C#N)=C/c1ccc(OCC(=O)Nc2ccc(C)c(C)c2)c(OC)c1`, with 9.11%. Regarding `CCOC(=O)C(/C(C)=N/NC(=O)c1ccccc1[N+](=O)[O-])C(C)C` (stereo not shown), the “hERG current change (%, negative = inhibition) at 1uM” value was found to be 4.69%. On to `CCN(CC)P(=O)(NC(=O)C(Cl)(Cl)Cl)N(CC)CC.[Cl-].[Cl-].[Cl-].[Nd+3]`, for which the “hERG current change (%, negative = inhibition) at 1uM” value is -4.63%. As to `CC(=O)N(C)c1ccc(NS(=O)(=O)c2cc(Cl)ccc2Cl)cc1`, the “hERG current change (%, negative = inhibition) at 1uM” value worked out at 1.51%. The result for `CCNC(=O)CC1SC(=Nc2ccc(Cl)cc2)N(CC)C1=O` (stereo not shown) reads -0.56%; that for `CCC(C)c1ccc(NC(=O)c2[nH]c(C)c(C(C)=O)c2C)cc1` (stereo not shown), 12.2%; that for `O=C(CSc1nnc(NC(=O)c2ccccc2Cl)s1)NC1CC1`, 13.5%. Regarding `CCN1CCN(S(=O)(=O)c2ccc(Br)s2)CC1`, the “hERG current change (%, negative = inhibition) at 1uM” value came to 8.57%. The result for `COc1ccc(NC(=O)CN(C)C(=O)CC2CCCC2)cc1` reads 11.8%; that for `O=C(NCc1ccco1)C1(c2ccc(Br)cc2)CCCC1`, 11.9%; that for `COc1cc(C(CCN2CCCC(C)C2)c2c(OC)cc(OC)c3c2OC(=O)CC3c2ccc(N(C)C)cc2)cc(OC)c1OC` (stereo not shown), 8.8%.

As for `Cc1nnc(SCC(=O)NNC(=O)c2ccc(Cl)cc2)n1CC1CCCO1` (stereo not shown), the “hERG current change (%, negative = inhibition) at 1uM” value is -1.84%. In the case of `N/C(=N\OS(=O)(=O)c1ccc(Cl)cc1)c1ccncc1`, the “hERG current change (%, negative = inhibition) at 1uM” value was -2.98%. For the compound `COc1ccc(C(=O)NC(C)CCCC(C)(C)O)cc1OC1CCN(C(C)=O)CC1` (stereo not shown), the “hERG current change (%, negative = inhibition) at 1uM” value is 18.2%. Then `Cc1cc(-c2ccc(S(=O)(=O)N3CCN(C)CC3)s2)on1`, with 6.37%; and `CCOc1ccccc1NC(=O)c1ccc2c(c1)C(=O)N(CC(C)C)C2=O`, with 8.08%; and `CC1OC2(C)OC(=N)C1(C#N)C(C#N)(C#N)C2c1ccccc1` (stereo not shown), with 21.3%. The result for `COc1cc(C2N(c3ccccn3)C(=O)C3CCCN32)cc(OC)c1OC` (stereo not shown) reads 1.27%; that for `CCCNc1nc(N)nc(-c2cc(Cl)ccc2OC)n1`, 10.4%.

As for `CCN1C(=O)[C@@H]2[C@H](C1=O)[C@@H]1C(=O)Nc3ccccc3C(=O)N1[C@@H]2c1ccccc1`, the “hERG current change (%, negative = inhibition) at 1uM” value amounted to 9.1%.

As to `COc1ccc(NC(=O)CCc2nnc3ccc(NCc4ccco4)nn23)cc1`, the “hERG current change (%, negative = inhibition) at 1uM” value stood at 10.4%.

With `Clc1ccc(-c2ccn[nH]2)cc1`, the “hERG current change (%, negative = inhibition) at 1uM” value is given as 11.3%. On to `COCCOC(=O)c1c(C)nc(SCC(=O)Nc2ccc(C)cc2)c(C#N)c1-c1ccco1`, for which the “hERG current change (%, negative = inhibition) at 1uM” value is recorded as 11.6%. The result for `O=C(Nc1cccc(NC(=O)c2ccc(-c3ccc(Br)cc3)o2)c1)c1ccccc1` reads -0.478%; that for `CCC(Cc1ccccc1)NC(=O)c1ccc2nc(N3CCOCC3)sc2c1` (stereo not shown), 0.867%. On to `CCOc1ccc(NS(=O)(=O)c2ccc(SC)cc2)cc1`, for which the “hERG current change (%, negative = inhibition) at 1uM” value worked out at 0.548%. `Cc1noc(C)c1C(=O)Nc1cc(Cl)ccc1N1CCOCC1`: the “hERG current change (%, negative = inhibition) at 1uM” value amounted to 12%. For the compound `O=C(c1cc(C2CC2)nc2ccccc12)N1N=C(C(F)F)CC1(O)C(F)F` (stereo not shown), the “hERG current change (%, negative = inhibition) at 1uM” value amounted to 3.05%. Then `O=C(O)CNC(=S)N(Cc1ccco1)Cc1ccccc1Cl`, with 6.02%; and `CCc1noc(C)c1C(=O)NNC(=O)c1ccc(Br)cc1`, with 9.4%; and `CN(CC1CCCN(CCc2ccc(Cl)cc2)C1)C(=O)c1ccoc1` (stereo not shown), with -85.3%. The result for `COC(=O)c1ccc(NC(=O)c2ccc(C)cc2)o1` reads 7.08%; that for `COc1ccccc1N1CCN(CC(O)COCc2cccs2)CC1.Cl` (stereo not shown), 0.795%. Turning to `COc1cc2oc(=O)cc(C)c2c(OC)c1OC`, the “hERG current change (%, negative = inhibition) at 1uM” value was 9.24%. `COc1ccc(N2CCN(CCNC(=O)c3c(C)cc(=O)oc3C)CC2)cc1`: the “hERG current change (%, negative = inhibition) at 1uM” value is -3.07%. Regarding `CCOC(=O)C(NC(C)=O)C(O)c1ccc([N+](=O)[O-])cc1` (stereo not shown), the “hERG current change (%, negative = inhibition) at 1uM” value is given as 7.93%. Regarding `Cc1cc2c3c(c1)C1(C(=O)N3C(C)(C)CC2C)C(C#N)=C(N)OC2=C1C(=O)CC(C)(C)C2` (stereo not shown), the “hERG current change (%, negative = inhibition) at 1uM” value was determined as 3.67%.

Turning to `O=C(CCS(=O)(=O)c1ccccc1)Nc1ccc(N2CCN(Cc3ccccc3)CC2)cc1`, the “hERG current change (%, negative = inhibition) at 1uM” value is listed as -0.518%. Then `O=C(CN1CCCCC1)NC(=O)NCc1ccccc1`, with 6.69%; and `O=C(N/N=C/c1ccc(O)c(O)c1O)/C(=C/c1ccc([N+](=O)[O-])cc1)NC(=O)c1ccccc1`, with 15.9%; and `O=C(OC(C(=O)NC1CCCC1)c1cccnc1)C1=Cc2ccccc2OC1` (stereo not shown), with 3.21%. The result for `COCCCNC(=O)CCCn1c(=O)c2ccccc2n(CC(=O)Nc2c(C)cc(C)cc2C)c1=O` reads 7.07%.

For `CCOc1ccc(NC(=O)c2ccc3c(c2)OCCO3)cc1S(=O)(=O)N(CC)CC`, the “hERG current change (%, negative = inhibition) at 1uM” value is given as -5.32%. Then `COc1ccccc1N(CC(=O)Nc1ccccc1C(=O)NC(C)C)S(C)(=O)=O`, with 11.9%; and `Cc1nc(-c2ccccc2)c(Cc2ccccc2O)c(=O)[nH]1`, with 13.3%; and `CCN(CC)c1ccc(/C=C(/C#N)c2nc3ccc(C)cc3[nH]2)c(OC(C)C)c1`, with 8.09%. Then `COc1cc(CO)ccc1Oc1nc2ccccc2n2cnnc12`, with 9.51%; and `NC(=O)N=Nc1c(O)[nH]c2ccc([N+](=O)[O-])cc12`, with 34.1%. `COc1ccc(OCc2cc(C(=O)NCCN3CCCC(O)C3)no2)c(Cl)c1` (stereo not shown): the “hERG current change (%, negative = inhibition) at 1uM” value is on record as -2.94%. Then `CC1=C/C(=N\N=C2\NC(=O)C(CC(=O)Nc3ccccc3)S2)CC(C)(C)C1` (stereo not shown), with 8.69%; and `CCOC(=O)c1cc2sccc2n1Cc1ccccc1`, with 5.41%. Then `COC(=O)C(Cc1ccccc1)P(=O)(c1ccccc1)c1ccccc1` (stereo not shown), with 10.4%; and `COC(=O)c1cc(OC)c(OC)cc1NC(=O)Nc1ccccc1OC`, with 1.25%; and `COC(=O)N/N=C/c1cn(Cc2ccc(F)cc2)c2ccccc12`, with 9.82%. For the compound `CS(=O)(=O)N(Cc1ccc(C(=O)NCCSc2ccccn2)cc1)c1ccccc1`, the “hERG current change (%, negative = inhibition) at 1uM” value was -2.3%. The result for `Cc1[nH]c2ccccc2c1C1C(c2ccccc2)=NN=C(C(C)C)N1O` (stereo not shown) reads 0.519%; that for `CN(C)C(CNC(=O)c1ccc(S(=O)(=O)Nc2ccccc2)cc1)c1ccco1` (stereo not shown), 14%; that for `CC(C)CN(C(=O)COC(=O)Cc1n[nH]c(=O)c2ccccc12)C1CCS(=O)(=O)C1` (stereo not shown), 11.7%.

`O=C(O)c1ccc(COc2ccc3c4c(c(=O)oc3c2)CCC4)o1`: the “hERG current change (%, negative = inhibition) at 1uM” value stood at 16.3%.

Regarding `O=S(=O)(N/N=C/c1ccc2c(c1)OCO2)c1ccc(Br)cc1`, the “hERG current change (%, negative = inhibition) at 1uM” value is recorded as 10.8%. `CCn1c(=O)cc(OCC(=O)NCC2CCCO2)c2ccccc21` (stereo not shown): the “hERG current change (%, negative = inhibition) at 1uM” value is 13%. Then `CN=C(Nc1cc(Cl)ccc1Cl)SC1CC(=O)N(c2ccc(C(=O)OC)cc2)C1=O` (stereo not shown), with 12.9%; and `O=C(NNC(=S)Nc1ccccc1)c1ccccc1[N+](=O)[O-]`, with 22.2%. Turning to `CCC(C)(c1ccc(C=O)s1)c1ccc(C=O)s1`, the “hERG current change (%, negative = inhibition) at 1uM” value is reported as 14.4%. The result for `CCN(CC)C(=O)c1c2c(nc3ccccc13)-c1ccccc1CC2` reads 12.8%; that for `C/C(=C\C(=O)c1ccccc1)NNc1nc2ccccc2s1`, 9.97%; that for `Nc1cc(=O)[nH]c(SCC(=O)Nc2cc([N+](=O)[O-])ccc2Cl)n1`, 1.49%. On to `CCOC(=O)C1CCN(C(=O)CSc2nc(N)cc(=O)[nH]2)CC1`, for which the “hERG current change (%, negative = inhibition) at 1uM” value came to 16%. In the case of `COc1cc(OC)c(C2C3=C(CCCC3=O)Nc3nc4ccccc4n32)cc1OC` (stereo not shown), the “hERG current change (%, negative = inhibition) at 1uM” value is given as 9.11%. The result for `N#Cc1ccccc1Cn1cc(C(=O)c2ccccc2F)c2ccccc21` reads 3.41%; that for `CN(C)S(=O)(=O)CC12CCC(CC1=O)C2(C)C` (stereo not shown), 8.97%; that for `CC(C)(O)C#Cc1ccc(C(=O)N2CCN(c3ccc(Cl)cc3)CC2)cc1`, 4.19%. The result for `Cc1ccc(CS(=O)Cc2ccc(C(=O)N3CCN(c4ccccc4)CC3)o2)cc1` (stereo not shown) reads 11.3%; that for `CN(C)CCCNCCCCNC(=O)/C=N/O`, 6.1%. For `COc1ccc(NCc2nnc(SCC(=O)Nc3ccc(OC)cc3)n2C)cc1`, the “hERG current change (%, negative = inhibition) at 1uM” value turned out to be 6.26%. The result for `COc1ccc(/C(O)=C2/C(=O)C(=O)N(CCN3CCOCC3)C2c2ccc(C)cc2)cc1` (stereo not shown) reads 2.37%; that for `COc1cc(/C=N\NC(=O)c2ccc(C)nc2)ccc1OC(=O)c1cccc(F)c1`, 4.34%. The result for `CC(C)CCNc1nc2c(c(=O)n(Cc3cccc(F)c3)c(=O)n2C)n1C` reads 4.91%; that for `O=C(O)CCCC(=O)Nc1ccc(C(=O)N2CCCCC2)c(Cl)c1`, 13.3%; that for `CN1CCc2nc(SCC(=O)Nc3ccc(F)cc3)c(C#N)cc2C1`, 4.82%.

In the case of `COc1ccc(/C=N/NC(=O)CCn2c3ccccc3c3ccccc32)cc1O`, the “hERG current change (%, negative = inhibition) at 1uM” value came to 16.8%. As to `O=[N+]([O-])c1cccc(-c2nnc(C34CC5CC(CC(C5)C3)C4)o2)c1`, the “hERG current change (%, negative = inhibition) at 1uM” value is given as 12.2%. Then `COc1cccc(Nc2nnc(SCC3CCCCO3)s2)c1` (stereo not shown), with 10.4%; and `CC(=O)N1CCOc2ccc(S(=O)(=O)Nc3ccc(Cl)cn3)cc21`, with 12.2%.
